Hit rate of the full screen: of about 410,000 compounds, about 6,400 (1.6%) were called active. Inconclusive means that the source gave no clear call. Such entries were picked first, then a sample of the others. Calls follow the shape of the dose curve; as a rule, active = well fitted inhibition curve with a large enough effect; inconclusive = small, poorly fitted or top-dose-only effect; inactive = no such curve, though single readings can be large or run the other way. No potency is given beside an inconclusive call; the fits are too rough.
What follows are compounds tested against Glucagon-like peptide 1 receptor (Homo sapiens) (UniProt P43220) (assay: qHTS of GLP-1 Receptor Inverse Agonists (Inhibition Mode)). Conditions: HEK293 GLP-1R CRE-luciferase, luminescence, 24 h, GLP-1R form is constitutively active; activity change, negative = inhibition: at 38.3 µM (top of the series) unless noted.
Procedure, shortened: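 Seeding at 200 cells/uL, 12 h culture, 24 hr compound treatment, then luciferase reagent and a luminescence read; cells are HEK293 stably expressing a constitutively active GLP-1R plus cAMP-responsive luciferase.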
% is scaled to controls: 0 for no effect and ±100 for the full control effect; potency is read from the fitted curve at half-maximal effect; tags tell the direction and shape of the fitted curve.
Also: nearly all actives have a fitted effect of over 55% in size.

UniProt P43220, sequence (P43220 whole entry, looked up): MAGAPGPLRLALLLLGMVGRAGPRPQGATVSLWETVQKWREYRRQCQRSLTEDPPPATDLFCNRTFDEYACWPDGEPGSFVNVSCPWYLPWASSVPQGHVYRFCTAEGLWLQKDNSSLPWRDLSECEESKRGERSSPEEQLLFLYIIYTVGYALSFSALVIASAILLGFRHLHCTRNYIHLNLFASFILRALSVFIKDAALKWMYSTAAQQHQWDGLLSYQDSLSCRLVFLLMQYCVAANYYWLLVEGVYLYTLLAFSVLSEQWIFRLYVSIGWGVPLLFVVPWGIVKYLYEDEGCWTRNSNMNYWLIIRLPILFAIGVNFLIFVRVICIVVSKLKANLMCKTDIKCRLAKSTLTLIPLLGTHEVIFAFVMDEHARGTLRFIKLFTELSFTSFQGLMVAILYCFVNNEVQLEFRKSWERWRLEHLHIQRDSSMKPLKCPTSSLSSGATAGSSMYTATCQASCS

Structure (SMILES)	Potency	activity change, negative = inhibition
Cc1ccc(NC(=O)CCNS(=O)(=O)c2ccccc2)c(C(=O)c2ccccc2)c1	inconclusive [inhibitor, partial curve, poor fit]	
Cc1cccc(COC[C@H](Cc2ccccc2)N2CCN(C(=O)c3cc(Cl)cc(Cl)c3)CCC2=O)c1	active: 11.2 µM	
CC(NC(=O)CCCCCN1C(=O)c2ccccc2C1=O)c1ccc2c(c1)CCCC2 (stereo unspecified)		inactive: 26.6%
CC(C)(C)c1ccc(SCCc2cccnc2)cc1	inconclusive [inhibitor, single point]	
CCCN1CCC2(CC1)NC(C(=O)O)Cc1c2[nH]c2ccccc12 (stereo unspecified)		inactive: -13.9%
CCOC(=O)c1cc(-c2sc(NC(=O)c3ccccc3)nc2C)n(-c2ccc(Br)cc2)n1	inconclusive [inhibitor, partial curve, poor fit]	
Cn1c(-c2ccc(F)cc2)cnc1NCc1cccc(F)c1	inconclusive [inhibitor, single point]	
Fc1ccc(NC(=S)Nc2cccnc2)cc1Cl	inconclusive [inhibitor, single point]	
O=C(CN1CCN(c2ccccc2O)CC1)Nc1ccccc1C(=O)NCCc1ccccc1	inconclusive [inhibitor, single point]	
CC(C)(C)c1ccc(NC(=O)Nc2ccc(OCC(=O)N3CCOCC3)cc2)cc1	inconclusive [inhibitor, partial curve]	
CN(C(=O)COC(=O)c1ccc2c(c1)OCO2)C1CCCCC1	inconclusive [inhibitor, single point]	
O=C(Nc1ccccc1N1CCCCC1)c1ccc(Cl)c([N+](=O)[O-])c1	inconclusive [inhibitor, single point]	
COc1ccccc1/C=C1\SC(=O)N(CCC(=O)N2CCCCC2CCO)C1=O (stereo unspecified)	inconclusive [inhibitor, partial curve]	
COc1ccccc1N(CC(=O)Nc1ccc(C)cc1Cl)S(=O)(=O)c1cccs1	inconclusive [inhibitor, single point]	
O=C(CN1C(=O)NC2(CCCCCC2)C1=O)NCc1ccc(Cl)cc1	inconclusive [inhibitor, single point]	
O=C1[C@H](Cc2ccccc2)NCC=CC[C@@H](c2ccc(Cl)cc2)N1Cc1ccccc1	inconclusive [inhibitor, single point]	
O=C(C=CC(=O)OC1CCCCC1)OC1CCCCC1	inconclusive [inhibitor, single point]	
c1ccc2c(c1)oc1c(NCc3ccc4c(c3)OCO4)ncnc12	inconclusive [inhibitor, partial curve, poor fit]	
CC(CNC(=O)C1CCN(Cc2cc3ccccc3n2Cc2ccccc2)CC1)c1ccccc1 (stereo unspecified)	active: 10 µM	
CCCn1c(=S)[nH]c2ccccc2c1=O	inconclusive [inhibitor, partial curve, poor fit]	
COc1ccccc1C(=O)Nc1nc2cc3c(cc2s1)OCCO3	inconclusive [inhibitor, single point]	
O=C(CSc1cn(CC(=O)N2CCCCC2)c2ccccc12)Nc1ccccc1F		inactive: -9.44%

Structure (SMILES)	Potency	activity change, negative = inhibition
Cc1cccc(OCCCN2C(=O)C(=O)c3cc(C)ccc32)c1	inconclusive [inhibitor, single point]	
O=C(CCOc1ccccc1)Nc1ccc([N+](=O)[O-])cc1	inconclusive [inhibitor, single point]	
CCOC(=O)C1CCN(C(=O)c2oc3ccc4c(c3c2C)C(O)CC2(CCCCC2)O4)CC1 (stereo unspecified)	inconclusive [inhibitor, single point]	
COc1cc(NC(=O)CCS(=O)(=O)c2nc(-c3cccs3)cc(C(F)(F)F)n2)cc(OC)c1OC	inconclusive [inhibitor, single point]	
O=C(O)c1ccccc1C(=O)NNc1ccc(Cl)cc1Cl	inconclusive [inhibitor, full curve, poor fit]	
COc1ccc(C(=O)c2cn(Cc3ccc(C)cc3)c3cc4c(cc3c2=O)OCO4)cc1		inactive: 16.4%
O=C(CSc1nnc(COc2ccc(Cl)cc2)o1)NC1CC2CCC1C2 (stereo unspecified)	inconclusive [inhibitor, single point]	
COC(=O)[C@@]12CCCCN1[C@H](c1ccc(-c3cccc(Cl)c3)c(OC)c1)[C@@H]1C(=O)N(C)C(=O)[C@@H]12	inconclusive [inhibitor, full curve, poor fit]	
O=C(NC1CCCc2ccccc21)C1CCN(S(=O)(=O)c2ccccc2F)CC1 (stereo unspecified)	inconclusive [inhibitor, single point]	
CCCCSCCCNC(=S)Nc1ccccc1C	inconclusive [inhibitor, single point]	
O=C(CN1C(=O)C2(SCC(=O)N2c2ccccc2)c2ccccc21)NCc1ccccc1Cl (stereo unspecified)		inactive: -8.63%
COc1cc(NC(=O)c2cccs2)ccc1NC(=O)Cc1ccccc1	inconclusive [inhibitor, partial curve, poor fit]	
COc1ccccc1C(=O)Oc1ccc2c(c1)O/C(=C\c1ccncc1)C2=O		inactive: 22.5%
COc1ccc(S(=O)(=O)N2C3CCC2CC(NC(=O)NC2CCCCC2)C3)cc1 (stereo unspecified)	inconclusive [inhibitor, partial curve, poor fit]	
CCCCNc1nc(Oc2ccc(=O)n(C)n2)nc(N(C)C)n1		inactive: -2.01%
O=c1[nH]cnc2sc3c(c12)CN(Cc1ccccc1)CC3		inactive: -5.98%
CC(=O)Oc1oc(-c2ccccc2)nc1/C=N/c1ccccn1		inactive: -0.624%
COc1cc(C=O)c(Br)cc1OC1CCCC1	inconclusive [inhibitor, single point]	
COc1cccc(CN2CCC2(C)C(=O)Nc2ccc(Cl)c(Cl)c2)c1F (stereo unspecified)	inconclusive [inhibitor, partial curve, poor fit]	
COc1cc2nc(NC(=O)c3ccc(F)cc3Cl)sc(=O)c2cc1OC	inconclusive [inhibitor, single point]	
O=C(NCc1ccc(F)cc1)c1cc(S(=O)(=O)N2CCCCC2)ccc1N1CCOCC1	inconclusive [inhibitor, single point]	
CSc1nsc(NC(=O)OCc2ccc(Cl)cc2)n1	inconclusive [inhibitor, single point]	

Structure (SMILES)	Potency	activity change, negative = inhibition
CC(C)(C)c1ccc(S(=O)(=O)NC(=O)C2(C)CCN2C(=O)Cc2ccc(Cl)cc2Cl)cc1 (stereo unspecified)	inconclusive [inhibitor, single point]	
C=CCNC(=S)Nc1ccc(Br)cc1F	inconclusive [inhibitor, single point]	
CCOc1cc(CNCCSc2nnnn2-c2ccccc2)cc(Cl)c1OC	inconclusive [inhibitor, single point]	
CC1CN(c2ccccc2)NC1=O (stereo unspecified)		inactive: -10.9%
Cc1ccccc1C(OCC(O)CN1CCCCC1CCO)c1ccccc1 (stereo unspecified)	active: 10 µM	
Cc1cc(NC(=O)C(C)SCC(=O)N(Cc2ccccc2)c2ccccc2)no1 (stereo unspecified)	inconclusive [inhibitor, single point]	
CCCNC(=O)NC(=O)CSc1nnc(-c2c[nH]c3ccccc23)o1		inactive: -7.09%
CC(C)CCNC(=S)Nc1ccccn1	inconclusive [inhibitor, partial curve, poor fit]	
CCOC(=O)C1=C(Cn2ccc(C(F)(F)F)n2)NC(=O)NC1c1ccc2c(c1)OCO2 (stereo unspecified)	inconclusive [inhibitor, single point]	
CC(=O)NC12CC3CC(C1)CC(C(=O)N(C)Cc1cccc(Cl)c1Cl)(C3)C2	inconclusive [inhibitor, partial curve, poor fit]	
CCCN1C(=O)/C(=C/c2ccc(N3CCCC3)c(C)c2)NC1=S	inconclusive [inhibitor, partial curve, poor fit]	
O=C(CNC(=S)N(CCCN1CCOCC1)Cc1cccs1)NC1CCCCCCC1	inconclusive [inhibitor, single point]	
NC(=S)NN=C1c2ccccc2-c2c(F)c(F)c(F)c(F)c21	inconclusive [inhibitor, single point]	
CC(=O)Nc1ccc(-c2ccnc3c2CC(C)(C(=O)Nc2cccc(C(F)(F)F)c2)O3)cc1 (stereo unspecified)	inconclusive [inhibitor, partial curve, poor fit]	
CCNC(=O)C1(C)CCCN(Cc2cccc3c(OC)cc(C(=O)OCC)cc23)C1 (stereo unspecified)		inactive: -15.2%
Nc1ccccc1C(=O)NCC1(c2ccccc2)CCCC1	active: 3.16 µM	
O=C(c1ccc(-c2ccccc2)c(F)c1)C1CCCN(CCCn2cccn2)C1 (stereo unspecified)	inconclusive [inhibitor, full curve, poor fit]	
O=C(CCN1C(=O)c2ccccc2S1(=O)=O)Nc1ccccc1F	inconclusive [inhibitor, full curve]	
CCCC12CN3CC(CCC)(CN(C1)C3c1c[nH]c3ccccc13)C2=O (stereo unspecified)		inactive: -7.71%
COc1ccc(-c2nc(-c3ccccc3)c(-c3ccccc3)[nH]2)cc1Br	inconclusive [inhibitor, full curve, poor fit]	
Oc1c(I)cc(Cl)c2cccnc12	inconclusive [inhibitor, partial curve, poor fit]	
Cc1ccc2nc(CCc3nc4ccc(C)cc4[nH]3)[nH]c2c1	inconclusive [inhibitor, single point]	

— PubChem BioAssay AID624417 (National Center for Advancing Translational Sciences (NCATS), 2012)
